Source: the supplement of paper PMC3334620
In all, about 33,000 sequences were measured (“E-score (-0.5 to 0.5)”: median about -0.013, highest 2% from about 0.3 on). Some of the results follow.

Molecular target: T1, Msn1 (UniProt P22148)
T1 sequence: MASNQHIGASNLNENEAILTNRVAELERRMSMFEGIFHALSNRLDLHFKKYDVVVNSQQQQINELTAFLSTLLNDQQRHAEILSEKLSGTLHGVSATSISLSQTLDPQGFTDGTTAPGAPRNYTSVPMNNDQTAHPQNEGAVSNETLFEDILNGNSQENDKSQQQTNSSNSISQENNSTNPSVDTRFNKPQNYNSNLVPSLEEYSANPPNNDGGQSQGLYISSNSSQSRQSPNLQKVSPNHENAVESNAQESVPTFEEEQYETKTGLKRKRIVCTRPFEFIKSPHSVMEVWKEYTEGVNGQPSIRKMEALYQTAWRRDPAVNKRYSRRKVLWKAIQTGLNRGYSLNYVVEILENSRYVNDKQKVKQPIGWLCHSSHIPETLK
Test: PBM E-score (8-mer binding enrichment) (E-score (-0.5 to 0.5)); higher = stronger / more preferred TF binding; most listed sequences are background and not binding sites
Conditions: protein concentration: 200 nM; construct: GST-full length
Description: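 Universal 'all 10-mer' protein binding microarrays (Agilent AMADID 015681) probed with GST-tagged S. cerevisiae TFs (full-length or DBD) made by in vitro transcription/translation (PURExpress), about 100-200 nM. Bound TF was detected with fluorescent anti-GST. Each ungapped 8-mer (which stands for itself and its reverse complement) is scored by the PBM enrichment score (E-score), a modified Wilcoxon-Mann-Whitney statistic from -0.5 to +0.5, computed with the Universal PBM Analysis Suite. Scale: above 0.35 generally sequence-specific binding.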

| Sequence | PBM E-score |
| --- | --- |
| AATCGGTC | 0.0137 |
| CGAGGGAG | -0.302 |
| CCATCTTA | -0.0532 |
| CACAGTAG | -0.0222 |
| GTACAGAC | 0.179 |
| ACTAGTTG | -0.0917 |
| CCGATACA | 0.132 |
| CCCTCTGC | -0.383 |
| AACGTTTG | -0.00651 |
| CAGCTAGA | -0.0369 |
| AGATAACA | 0.0684 |
| GTGCTCTA | -0.159 |
| CATAGAAC | -0.136 |
| AGTAAAAC | -0.0534 |
| ACTGCCGC | 0.0385 |
| CGTGCATC | -0.203 |
| ATCGTAAG | -0.07 |
| CCCGCGAA | 0.0232 |
| GAAGATCC | 0.0124 |
| CGGAGCTC | -0.0232 |
| CTTCCAAA | -0.0435 |
| ACTTAGAT | 0.288 |

| Sequence | PBM E-score |
| --- | --- |
| GGACATAC | 0.48 |
| CCTTTTAC | 0.0837 |
| AACAAATG | 0.291 |
| TCAGGCAA | -0.0779 |
| ATGCAGAC | 0.144 |
| CCCATGAA | -0.0272 |
| GCTTAAGA | -0.0621 |
| AAGATTCG | 0.174 |
| AAAGCAAG | 0.0738 |
| AGTGATAA | 0.024 |
| AGCTAACG | 0.0181 |
| CCGCTCGC | -0.188 |
| CAATGCTA | -0.0155 |
| CGTTTGCA | 0.0699 |
| CTGTCGAA | -0.0976 |
| CAAGGAAC | 0.123 |
| AGGCCAAA | -0.119 |
| CTGTTACA | 0.0596 |
| CCTCGCTA | -0.212 |
| GCAGGACA | 0.47 |
| ACCCGTTA | 0.00896 |
| AAATAAGA | 0.154 |

| Sequence | PBM E-score |
| --- | --- |
| ATATAAGA | 0.182 |
| CTCAAGGA | 0.0528 |
| AAGCGCTG | -0.0591 |
| AAGACCTC | -0.222 |
| TCAGCCGA | 0.13 |
| ACCCATAG | -0.292 |
| CCATAACG | 0.00258 |
| GAGCCTGA | -0.153 |
| GGAAAATA | 0.114 |
| AACGTCTA | 0.0482 |
| ATAACTTC | 0.142 |
| CCCTTGAG | -0.135 |
| GCCACTGA | -0.295 |
| GAAGGTTA | -0.0328 |
| AAGGAGGA | -0.153 |
| GCCAGAGA | -0.0332 |
| CATGAGGG | -0.0694 |
| GTAGAGGA | -0.329 |
| CATTTGTC | 0.485 |
| CATACTGA | 0.00482 |
| ACCCTCGG | 0.0965 |
| GACATACA | 0.414 |

| Sequence | PBM E-score |
| --- | --- |
| ACTAACTG | 0.0908 |
| AACGCCGT | 0.00803 |
| AATCAGCG | -0.0445 |
| ACACTGGA | 0.0822 |
| GCTGTATA | -0.0745 |
| GCATGGGA | -0.139 |
| AAATTCTC | -0.0923 |
| CGACCTGA | 0.0583 |
| GATCCCAA | 0.0564 |
| CCTATTGC | -0.109 |
| AAATACCT | 0.0549 |
| ACTATGAA | 0.112 |
| ATGGGCGA | -0.219 |
| CGCAGCTC | -0.131 |
| GGAGTCAC | -0.164 |
| GCCTTTCA | -0.179 |
| GTCCGCAA | 0.281 |
| ATGGCAGG | 0.0777 |
| AGACAAGG | 0.162 |
| CGGCAGCA | -0.259 |
